# The list shows a part of the results. Values were computed here from the reads of four pooled replicates and scatter widely.
# Molecular target: T1, Pho4 (S. cerevisiae) (UniProt P07270)
# T1 sequence: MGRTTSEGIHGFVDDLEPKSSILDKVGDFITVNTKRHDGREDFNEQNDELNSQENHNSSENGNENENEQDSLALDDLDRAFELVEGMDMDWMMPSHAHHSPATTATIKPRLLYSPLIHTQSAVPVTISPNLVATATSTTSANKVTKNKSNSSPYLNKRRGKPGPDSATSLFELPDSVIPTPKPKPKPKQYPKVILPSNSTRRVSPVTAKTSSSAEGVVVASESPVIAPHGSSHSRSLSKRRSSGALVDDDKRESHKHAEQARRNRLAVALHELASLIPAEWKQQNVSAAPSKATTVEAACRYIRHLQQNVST
# Assay: relative binding free energy (BET-seq); higher = weaker binding
# Details: reference: library average
row,Sequence,relative binding free energy
1,GTCGGCACGTGCGGCG,-0.1 kcal/mol
2,TGGGGCACGTGATGTC,0.06 kcal/mol
3,TGGAACACGTGAGGGC,0.27 kcal/mol
4,TTGTACACGTGACAGT,0.15 kcal/mol
5,GTAGGCACGTGCGGAG,-0.14 kcal/mol
6,TCTGACACGTGGCTGG,0.15 kcal/mol
7,GGGGTCACGTGCTATA,0.05 kcal/mol
8,GTAAGCACGTGAGGCG,0.05 kcal/mol
9,AATGGCACGTGGCAGT,-0.23 kcal/mol
10,ATAGTCACGTGTATAG,0.01 kcal/mol
11,CTGTACACGTGGCGGG,0.1 kcal/mol
12,CGAGGCACGTGATTAT,0.17 kcal/mol
13,CAGTGCACGTGTTGGT,-0.04 kcal/mol
14,GCAAGCACGTGTGTGT,-0.04 kcal/mol
15,TGCTACACGTGTGGAG,0.06 kcal/mol
16,AGGAACACGTGTGTAG,0 kcal/mol
17,ATGACCACGTGGGGTT,-0.22 kcal/mol
18,TTTTACACGTGTAAGG,0.2 kcal/mol
19,GAATCCACGTGTGGTG,0.16 kcal/mol
20,TGGGTCACGTGGAGCA,0.13 kcal/mol
21,AGTCTCACGTGTTAGA,0.18 kcal/mol
22,GGGATCACGTGGCGTT,0.17 kcal/mol
23,GTTGTCACGTGATCAA,0.41 kcal/mol
24,TGGCGCACGTGGCAGT,-0.13 kcal/mol
25,GGTGGCACGTGAGATA,0.11 kcal/mol

row,Sequence,relative binding free energy
1,ATAAACACGTGGAGTG,-0.02 kcal/mol
2,GGAATCACGTGGCGTA,0.07 kcal/mol
3,TATTGCACGTGGGGCC,-0.1 kcal/mol
4,ATATTCACGTGGGCTG,0.09 kcal/mol
5,AGGGGCACGTGTGCGT,-0.16 kcal/mol
6,ATAATCACGTGGCGTT,-0.06 kcal/mol
7,TTTTGCACGTGATTAG,0.08 kcal/mol
8,TTCGACACGTGTGAGG,0.18 kcal/mol
9,TTTATCACGTGCGTTT,0.13 kcal/mol
10,TGTTCCACGTGGCTTG,-0.03 kcal/mol
11,AGTTGCACGTGGGGTG,-0.15 kcal/mol
12,GAATTCACGTGCTGGT,0.29 kcal/mol
13,TGTTACACGTGAGTTG,0.24 kcal/mol
14,AGTTACACGTGGGGAG,0.01 kcal/mol
15,AACATCACGTGGAGGT,0.14 kcal/mol
16,CGAGGCACGTGGTGGA,-0.21 kcal/mol
17,TATGGCACGTGTAGTG,-0.09 kcal/mol
18,GTTTACACGTGGGAGA,0.06 kcal/mol
19,TATTGCACGTGGAGCA,0.11 kcal/mol
20,GGTGACACGTGGGATA,-0.02 kcal/mol
21,AGGTTCACGTGAAGGG,0.39 kcal/mol
22,TGTCTCACGTGGATTT,0.1 kcal/mol
23,AAGCGCACGTGGTGAG,-0.14 kcal/mol
24,GTTTCCACGTGATAGT,0.21 kcal/mol
25,TTAATCACGTGAGAGT,0.24 kcal/mol

row,Sequence,relative binding free energy
1,TGTCGCACGTGATAAG,0.04 kcal/mol
2,ATAAACACGTGTGGTA,0.01 kcal/mol
3,GGATTCACGTGTAACG,0.35 kcal/mol
4,CAGGTCACGTGGTTAG,0.01 kcal/mol
5,GTAGTCACGTGTAGGC,0.33 kcal/mol
6,CTAGGCACGTGGTAGG,-0.2 kcal/mol
7,TAATGCACGTGGTGTC,-0.19 kcal/mol
8,GAATTCACGTGGTTTA,0.28 kcal/mol
9,GAAGGCACGTGGGAAT,-0.23 kcal/mol
10,GGTGACACGTGAATTT,0.22 kcal/mol
11,CGAGACACGTGATGGT,0 kcal/mol
12,TATTTCACGTGGCGAG,0.21 kcal/mol
13,AGTGTCACGTGCGGGA,-0.03 kcal/mol
14,ATGTTCACGTGTAGTA,0.11 kcal/mol
15,CATTTCACGTGTAGCG,0.42 kcal/mol
16,TTGGTCACGTGGAGTA,0.18 kcal/mol
17,GCGTGCACGTGGTTGT,-0.05 kcal/mol
18,GTGGTCACGTGGAGCG,0.16 kcal/mol
19,TATTCCACGTGGTAAT,0.2 kcal/mol
20,ATGGGCACGTGTGGCA,-0.04 kcal/mol
21,GGTGGCACGTGAGGCC,0.14 kcal/mol
22,GTTTCCACGTGTATAT,0.12 kcal/mol
23,AGTGTCACGTGAAGGC,0.3 kcal/mol
24,CATGTCACGTGAGATT,0.4 kcal/mol
25,TTTTACACGTGCTTAA,0.03 kcal/mol

row,Sequence,relative binding free energy
1,AGGAACACGTGTTTTG,-0.01 kcal/mol
2,CTTAGCACGTGGTGTT,-0.2 kcal/mol
3,TAGGTCACGTGACGAT,0.35 kcal/mol
4,ATGTTCACGTGCAGGT,0.29 kcal/mol
5,CTTTTCACGTGGCTTT,0.06 kcal/mol
6,TTGCTCACGTGAGATA,0.43 kcal/mol
7,TATGCCACGTGGCGTG,-0.15 kcal/mol
8,CATGACACGTGTGGTG,-0.06 kcal/mol
9,GTGTTCACGTGAATCG,0.53 kcal/mol
10,TTGACCACGTGGGAAG,0.08 kcal/mol
11,TGATGCACGTGAATGG,0.25 kcal/mol
12,GGATGCACGTGGTTCA,0.04 kcal/mol
13,TTCTGCACGTGATTGC,0.17 kcal/mol
14,TGCAGCACGTGGTGCT,0.03 kcal/mol
15,CGGTTCACGTGGTTTG,0.26 kcal/mol
16,TATAACACGTGATGGA,0.08 kcal/mol
17,TTATTCACGTGGATCA,0.26 kcal/mol
18,GGAAGCACGTGGGGGA,-0.09 kcal/mol
19,AATGTCACGTGTAGGC,0.1 kcal/mol
20,ATGTTCACGTGTGATA,0.29 kcal/mol
21,TAGTTCACGTGTCAAG,0.26 kcal/mol
22,GTGCTCACGTGTGCGG,0.34 kcal/mol
23,TAGATCACGTGTGAGG,0.19 kcal/mol
24,TTTGACACGTGGTTTG,0 kcal/mol
25,TGTGCCACGTGATAGT,0.08 kcal/mol

row,Sequence,relative binding free energy
1,GTTTTCACGTGGAGGG,0.23 kcal/mol
2,GGTCTCACGTGGATGG,0.32 kcal/mol
3,TTAAGCACGTGAGGTC,0.09 kcal/mol
4,TTCTTCACGTGTAGAT,0.4 kcal/mol
5,TTATCCACGTGTTATG,-0.09 kcal/mol
6,TGACGCACGTGGGAGT,-0.2 kcal/mol
7,ATTGGCACGTGTAGTT,0.04 kcal/mol
8,GGTAGCACGTGAGGGA,0.2 kcal/mol
9,ATGTTCACGTGGGCAA,0.13 kcal/mol
10,TAGGGCACGTGATATG,-0.01 kcal/mol
11,GTGAACACGTGGTTGC,0.18 kcal/mol
12,GTGAGCACGTGAGTGT,-0.03 kcal/mol
13,AATCGCACGTGTTGAG,0.11 kcal/mol
14,ATGTCCACGTGCGGTG,0.03 kcal/mol
15,AGTCTCACGTGGGCAT,0.13 kcal/mol
16,TTAAGCACGTGTGCTG,-0.1 kcal/mol
17,TTAGGCACGTGTGAGG,0.03 kcal/mol
18,AATTGCACGTGAGATG,0.24 kcal/mol
19,TGCAGCACGTGTCTGG,-0.01 kcal/mol
20,ATACTCACGTGGGTTT,0.07 kcal/mol
21,CTTGGCACGTGGATCA,0.04 kcal/mol
22,GGGGGCACGTGGCGAG,-0.23 kcal/mol
23,TACAGCACGTGTGAGG,0.02 kcal/mol
24,TCAGGCACGTGAGGGT,0.05 kcal/mol
25,CGCTTCACGTGGGTGT,0.04 kcal/mol

row,Sequence,relative binding free energy
1,GTTTACACGTGCGGTC,0.26 kcal/mol
2,ATGTTCACGTGAGGAC,0.44 kcal/mol
3,GTTTACACGTGGTATT,0.08 kcal/mol
4,GTAGGCACGTGGTTGA,-0.14 kcal/mol
5,GGGCGCACGTGTGAGA,-0.02 kcal/mol
6,TGGGCCACGTGGCGGA,-0.17 kcal/mol
7,TAGGGCACGTGAAGTT,0.16 kcal/mol
8,CTGCACACGTGGGGGG,-0.14 kcal/mol
9,TAGTACACGTGGCAGG,0.06 kcal/mol
10,ATTGCCACGTGGAAGT,-0.01 kcal/mol
11,GAAATCACGTGTGGGT,0.27 kcal/mol
12,GATTTCACGTGCGTAG,0.4 kcal/mol
13,GTTAACACGTGAAGTG,0.28 kcal/mol
14,GGTTGCACGTGCGTGT,0.1 kcal/mol
15,TGCGTCACGTGTAGAA,0.13 kcal/mol
16,GTTGTCACGTGAATTA,0.35 kcal/mol
17,ATCTGCACGTGTGTAG,0.07 kcal/mol
18,GGGGGCACGTGCACAG,-0.13 kcal/mol
19,GGGTCCACGTGCTTAG,0.14 kcal/mol
20,GATGGCACGTGAATTG,0.2 kcal/mol
21,TGGGGCACGTGTTGGC,-0.02 kcal/mol
